Laboratory results as given in ChEMBL document CHEMBL4888484, “Replenishing the malaria drug discovery pipeline: Screening and hit evaluation of the MMV Hit Generation Library 1 (HGL1) against asexual blood stage Plasmodium falciparum ,using a nano luciferase reporter read-out” (2022).
Where “and” joins values, the source holds several entries; their conditions need not be identical. Equal values may be shown once. Hit rate of the full screen: of about 150,000 compounds, about 540 (0.36%) showed an effect of 50% or more. The list shows a part of the results.

Tested on: Plasmodium falciparum
Assay: Primary screen in NF54 nanoGlo assay, in single point, at 2uM, 72h; a lower Z score goes with more inhibition
Type: functional, Erythrocyte
Details: timepoint 72 hour

SMILES | % Inhibition [%] | Z score | % Inhibition (2 µM)
O=C(CCC(=O)N1CCn2nccc2C1)c1ccccc1 | -23 | 2.66 | –
NC(=O)Cc1nc(CN2CCCCCC2=O)n(-c2ccc3c(c2)CCC3)n1 | 5 | -0.86 | –
Cc1cc(C)cc(OCc2noc(CN(C(C)C)C3CC3)n2)c1 | -7 | 0.92 | –
O=C(CCc1cccnc1)Nc1cc(N2CCNC2=O)ccc1Cl | -11 | 2.13 | –
CCC(NC(=O)NCC1CCC(O)C1)c1c(C)nn(C)c1C (stereo unspecified) | -7 | 1.01 | –
CC(=O)N1CCc2[nH]c3ccc(C(=O)NCc4c(C)nn(C)c4C)cc3c2C1 | -1 | 0.15 | –
COc1c(CNC2CCCC(C(F)(F)F)C2)c(C)nn1C (stereo unspecified) | 2 | -0.29 | –
Cn1ncnc1C1(O)CCN(c2ncccc2Br)CC1 | -2 | 0.33 | –
Cc1csc(NC(=O)Cc2c[nH]c3ccccc23)n1 | -3 | 0.26 | –
CCc1nc(C)c(C(=O)N2CCC[C@H](c3nc4ccccc4s3)C2)o1 | -4 | 0.39 | –
CCCc1c(C(=O)N[C@@H](C)CCN(C)C)[nH]c(C)c1C(=O)OC | -2 | 0.28 | –
O=C1CC[C@@]2(CCCN(C(=O)c3cccc(O)c3)C2)CN1CCc1ccccn1 | -1 | 0.17 | –
CO[C@H]1[C@@H]2CC[C@H]1CN(c1nc(N)nc(C)c1CCC(=O)O)C2 | -11 | 1.37 | –
Cc1c(CN[C@H]2CC3(CCOCC3)Oc3ccccc32)cnn1C | 5 | -0.94 | –
O=C1CCc2cc(NC(=O)c3ccoc3)ccc2N1 | -22 | 1.95 | –
Cc1cc(NC(=O)c2ccc(-n3cncn3)nn2)no1 | -11 | 1.4 | –
O=C(Nc1nc(-c2ccsc2)ns1)N1CCCC(F)(F)CC1 | -7 | 0.89 | –
Cc1cc(C)c(-c2nc(-c3c(C)ncc4c3CCNC4)no2)c(=O)[nH]1 | -11 | 2.08 | –
Cc1cccc(-n2nc(C3CC3)nc2Cn2ccnn2)c1C | -5 | 1.07 | –
CN(Cc1cccc2[nH]ccc12)Cc1nccn1C | 0 | 0.01 | –
O=C(Cc1cc(-c2ccccc2)on1)Nc1ccccc1-c1ccccc1 | 3 | -0.69 | –
CCOC(=O)N1CCN(/C(=N\c2cccc(C(=O)O)c2)NC[C@H]2CCCO2)CC1 | 6 | -0.57 | –

SMILES | % Inhibition [%] | Z score | % Inhibition (2 µM)
O=S(=O)(CCn1ccnc1-c1ccncc1)c1ccccc1 | -12 | 2.34 | –
CCn1cnc(C(=O)NCc2ccc(F)cc2)c1 | -9 | 1.12 | –
CCN(C)C(=O)c1ncccc1NCC1CCC1 | -9 | 1.17 | –
Cc1ccc(N2CCN(Cc3nc(-c4ccccn4)no3)[C@@H](C)C2)cc1 | -9 | 1.41 | –
CCC[C@]1(CO)CCCN(c2cc(C(=O)N3CCCCC3)ccn2)C1 | -14 | 1.92 | –
CCOc1ccc(-n2c(-c3ccccc3)cc(C(=O)NCc3cccnc3)c2C)cc1 | 6 | -0.89 | –
CCOC(=O)N1CCN(C(=O)c2ccc(N(CC)S(C)(=O)=O)cc2)CC1 | -2 | 0.32 | –
CCN1CCN(C(=O)C2=CC(c3cccs3)=NS(=O)(=O)N2C)CC1 | -1 | 0.22 | –
O=C(Nc1[nH]nnc1C(=O)N1CCCC1)N[C@H]1CC12CCCCC2 | 1 | -0.11 | –
Cc1ccccc1OC[C@H](O)c1ncnn1CC(F)(F)F | -6 | 0.76 | –
c1ccc(-c2cn3nc(NCc4ccc(Cn5ccnc5)cc4)sc3n2)cc1 | 3 | -0.54 | –
CC(O)CCCNC1C2CCC1Cc1ccccc1C2 (stereo unspecified) | 29 | -3.24 | –
O=C1OC[C@@H]2CCN(Cc3cccnc3)Cc3ccc(F)cc3N12 | -14 | 2.18 | –
CCOCCC(=O)Nc1nccc(C)n1 | 9 | -1.32 | –
COc1ccc(N2CCN(C(=O)c3ccc(F)cc3)[C@@H](C)C2=O)cc1 | 36 | -1 | –
Cc1ccc(O[C@H]2COCC[C@H]2Nc2nc(N(C)C)ns2)cn1 | -1 | 0.16 | –
CC(C)N(CCO)C(=O)C[C@]1(c2ccccc2)CC(=O)N(CCCOc2cccnc2)C1=O | 8 | -0.97 | –
CC(C)(C(=O)COc1ncncc1-c1ccccc1)c1ccccc1 | 4 | -0.75 | –
CNC(=O)C1CCCCN1CCOCC1CCCO1 (stereo unspecified) | -3 | 0.36 | –
CC1(C)[C@@H](NS(=O)(=O)CC2CCCCO2)[C@@H]1c1ccccc1 (stereo partly specified) | -9 | 1.32 | –
CC1OCCC1S(=O)(=O)N(C)Cc1nncn1C(C)C (stereo unspecified) | -8 | 1.5 | –
O=c1[nH]cnc2[nH]c3cc(F)ccc3c12 | -6 | 1.1 | –

SMILES | % Inhibition [%] | Z score | % Inhibition (2 µM)
CN(c1ccnc(C(=O)NCCN2CCOCC2)c1)S(=O)(=O)c1ccccc1 | -6 | 0.91 | –
Cn1cc(S(=O)(=O)N2CCN(c3ccccn3)C(=O)C2)cn1 | 16 | -2.04 | –
O=C(c1ccc(NCc2cccnc2C(F)(F)F)cc1)C1CCC1 | -18 | 2.75 | –
O=C(Nc1cccc(Cl)c1)OCC(F)(F)F | 5 | -0.73 | –
Cc1ccccc1[C@H]1CC(=O)Nc2c1cnn2-c1nc2ccccc2s1 | 0 | 0.03 | –
CCCn1ncc(C(=O)N2C[C@H](NC(C)=O)[C@@H](c3ccc(C)cc3)C2)c1C | -8 | 1.11 | –
CN1CCN(c2cc(N(C)Cc3ncc[nH]3)ncn2)CC1=O | 5 | -0.84 | –
CC(C)C(=O)N(Cc1ccccc1OS(=O)(=O)c1cccc(C(F)(F)F)c1)C[C@H]1CCCO1 | -9 | 1.64 | –
C[C@@H](c1cccc(Cl)c1)S(N)(=O)=O | -11 | 1.01 | –
Cc1cc(CN(C)C(=O)c2ccc(C(C)C)cn2)no1 | -3 | 0.46 | –
COc1ccc(N(CC#N)Cc2cccs2)cc1 | -1 | 0.07 | –
C[C@@H](Cc1csc2ccccc12)NC(=O)c1ccno1 | 2 | -0.19 | –
COc1ccc(NC(=O)c2cnc(N(Cc3ccccc3)C(C)C)nc2N)cc1 | 15 | -2.3 | –
O=C(Nc1cnc(N2CCCCCC2)nc1)c1cnccn1 | -38 | 3.38 | –
CS(=O)(=O)N1CC[C@H](CNC(=O)N(CC2CC2)CC2CC2)C1 | 7 | -0.77 | –
COc1ccc(Br)cc1NC(=O)N(C)CCCn1ccnc1 | 8 | -0.86 | –
CC(C)N1CC[C@H](N(C)C(=O)c2ccc(C(=O)O)cc2F)C1 | 6 | -0.96 | –
CC(C)CCC(CC(=O)NCCN(C)C)C1CCOC(C)(C)C1 (stereo unspecified) | -11 | 1.47 | –
COc1ccccc1/C=C/CN1CCN(C)[C@]2(CCC(=O)N(C)CC2)C1 | 5 | -0.94 | –
Cc1cccc(CN2CCN(C(=O)c3ccccn3)[C@H]3CS(=O)(=O)C[C@H]32)c1 | 11 | -1.45 | –
CC(C)N(Cc1c(-c2ccccc2)nn(C)c1Oc1ccc(F)cc1)C[C@H](O)CN1CCOCC1 | -13 | 1.47 | –
COC[C@H]1[C@H](NS(=O)(=O)Cc2cc(Cl)cc(Cl)c2)[C@H]2CCO[C@H]21 | -11 | 2.06 | –

SMILES | % Inhibition [%] | Z score | % Inhibition (2 µM)
Cc1cccc(NC(=O)CN2CCN(Cc3nc(-c4ccccc4)no3)CC2)c1C | -2 | 0.43 | –
CN1CCN(C(=O)c2nn(C)c(=O)c3ccccc23)CC1=O | -3 | 0.51 | –
Cn1c(=O)c2c(ncn2CC(=O)N(Cc2ccccc2)C2CC2)n(C)c1=O | 36 | -4.58 | –
CC(C)[C@@H](c1nc(C2CC2)no1)N1CCCS1(=O)=O | -3 | 0.4 | –
Cc1noc(C)c1CC(=O)Nc1n[nH]c(CCC2CCCC2)n1 | – | – | -1% and -8%
Cc1c(NC(=O)[C@H]2CCCN(CC(F)(F)F)C2)nnn1Cc1cccc(F)c1 | -4 | 0.84 | –
COc1ccc(CC(=O)NCc2ccc(OCc3cccnc3)cc2)cc1 | 26 | -3.35 | –
O=C(Nc1ccc(Cl)cc1C(F)(F)F)N1CC[C@H](n2cnnc2C2CC2)C1 | -3 | 0.5 | –
Cn1ccnc1CN(CCO)C(=O)c1cc2cccc(Cl)c2n1C | -1 | 0.13 | –
CN1C(=O)c2ccccc2O[C@H]2CN(Cc3cc(-c4ccccc4)no3)C[C@H]21 | 4 | -0.65 | –
COCCNC(=O)c1ccc(OC)cc1OC1CCN(Cc2cccc3cccnc23)CC1 | -9 | 0.85 | –
COc1cccc(-n2c(=O)n(C3CCCC3)c(=O)c3c2ncn3Cc2cccc(C#N)c2)c1 | -11 | 0.98 | –
Cn1c(-c2nccn2[C@@H](Cc2ccccc2)C(=O)O)nc2ccccc21 | -6 | 0.87 | –
Cc1cccc(-c2noc(-c3sccc3NC(=O)c3n[nH]c4ccccc34)n2)c1 | -4 | 0.42 | –
CCn1cc(-c2cn(CCOc3ccccc3)nn2)cn1 | -8 | 0.96 | –
Cc1noc(COc2ccc(NC(=O)C3CCC3)cc2)n1 | -4 | 0.59 | –
CC(C)c1cnc(NS(C)(=O)=O)s1 | -10 | 1.49 | –
CCN(CC)C(=O)c1c(COc2ccc(C)cc2)n(Cc2ccccn2)c(C)cc1=O | 4 | -0.79 | –
Cc1noc(NC(=O)[C@H](C)Oc2ccccc2Br)n1 | 5 | -0.57 | –
CCCN(CC1CC1)C(=O)Nc1cccc(-c2nnc(C)s2)c1 | -6 | 1.02 | –
